{"source": "PubChem BioAssay AID1347073", "about": "(National Center for Advancing Translational Sciences (NCATS), 2019)", "note": "Among all 45,000 compounds or so, about 200 (0.44%) were called active. Roughly 7% stayed inconclusive and do not appear here. Calls follow the shape of the dose curve; as a rule, active = well fitted activation curve with a large enough effect; inconclusive = small, poorly fitted or top-dose-only effect; inactive = no such curve, though single readings can be large or run the other way. The list shows a part of the results."}
{"assay": "qHTS of TDP-43 Inhibitors: NCGC Sytravon Library Screen; also: 0% is about no effect; nearly all actives have a fitted effect of over 55% in size", "settings": "yeast TDP-43 toxicity rescue, BacTiter-Glo growth, 24 h; series mostly up to 46.1 µM; growth rescue (activation): at the top concentration", "summary_of_the_method": "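TDP-43-expressing yeast, pregrown in raffinose, seeded at OD600 0.02 in galactose medium with compound for 24 hr at 30 deg C. Growth read by BacTiter-Glo luminescence, so rescue of toxicity appears as activation.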"}
{"smiles": "O=C(NC(=S)NCC1CCCO1)c1ccc([N+](=O)[O-])cc1", "note": "(centres undefined)", "growth rescue (activation)": "inactive: 26.2%"}
{"smiles": "CCCn1nc(Oc2nc(NC(C)C)nc(N(C)C)n2)ccc1=O", "growth rescue (activation)": "inactive: 12.6%"}
{"smiles": "COc1ccccc1NS(=O)(=O)c1ccc2oc(N)nc2c1", "growth rescue (activation)": "inactive: 5.51%"}
{"smiles": "Fc1ccc2c(c1)C(c1cccnc1)=NNC(c1cccs1)=N2", "growth rescue (activation)": "inactive: 18.2%"}
{"smiles": "Cc1ccc(C(=O)Nc2ccc3c(c2)CCC3)cc1S(=O)(=O)N1CCOCC1", "growth rescue (activation)": "inactive: 12.4%"}
{"smiles": "COc1ccc(NC(=S)NCC(c2cccnc2)N2CCOCC2)cc1", "note": "(centres undefined)", "growth rescue (activation)": "inactive: 7.19%"}
{"smiles": "CCOC(=O)c1c(CSc2ccccc2)oc2cc(Br)c(O)c(CN(C)C)c12", "growth rescue (activation)": "inactive: -3.97%"}
{"smiles": "CCOC(=O)N(NC(=O)C(O)(c1ccccc1)c1ccccc1)c1ccccc1", "growth rescue (activation)": "inactive: 3.72%"}
{"smiles": "Cc1ccc(S(=O)(=O)N2CCN(S(=O)(=O)N3CCCCC3)CC2)cc1C", "growth rescue (activation)": "inactive: -6.09%"}
{"smiles": "O=c1[nH]c(N/N=C/c2ccccc2Br)nnc1-c1ccccc1", "growth rescue (activation)": "inactive: 0.541%"}
{"smiles": "O=C(Cc1ccccc1F)Nc1nc(-c2cccnc2)cs1", "growth rescue (activation)": "inactive: 8.08%"}
{"smiles": "CCOC(=O)c1c(NC(=O)c2cccc([N+](=O)[O-])c2C(=O)O)sc2c1CCCC2", "growth rescue (activation)": "inactive: 2.87%"}
{"smiles": "C#CCn1cc(/C=C2\\NC(=O)NC2=O)c2ccccc21", "growth rescue (activation)": "inactive: 7.65%"}
{"smiles": "Cc1c(CC(=O)N[C@H](C(=O)O)C(C)C)c(=O)oc2cc3c(cc12)CCC(C)(C)O3", "growth rescue (activation)": "inactive: -7.79%"}
{"smiles": "O=c1cc(CSc2nnc(C3CC3)n2Cc2ccccc2)nc2sccn12", "growth rescue (activation)": "inactive: 5.95%"}
{"smiles": "N#CC1=C(N)C2=CCCC[C@H]2[C@H](c2ccccc2)C1(C#N)C#N", "growth rescue (activation)": "inactive: 8.56%"}
{"smiles": "O=C(CCCn1c(=O)[nH]c2ccc(Br)cc2c1=O)NCc1ccc(Cl)cc1", "growth rescue (activation)": "inactive: 5.28%"}
{"smiles": "CCOC(=O)c1cnn2c(C(F)F)cc(C3CC3)nc12", "growth rescue (activation)": "inactive: 20.6%"}
{"smiles": "CC(=O)Nc1cccc(NC(=O)c2cc(Cl)ccc2Cl)c1", "growth rescue (activation)": "inactive: 2.42%"}
{"smiles": "CC(=O)NC(C(=O)OCC(=O)N(c1ccccc1)c1ccccc1)C(C)C", "note": "(centres undefined)", "growth rescue (activation)": "inactive: 25.7%"}
{"smiles": "COc1ccc(OC)c(/C=N/NC(=O)c2ccc3nc[nH]c3c2)c1", "growth rescue (activation)": "inactive: 0.189%"}
{"smiles": "CCOC(=O)C1=C(C)N=C2SCCC(=O)N2C1c1sccc1C", "note": "(centres undefined)", "growth rescue (activation)": "inactive: 8.16%"}
{"smiles": "O=C(O)c1ccccc1-c1ccccc1C(=O)Nc1nccs1", "growth rescue (activation)": "inactive: -0.59%"}
{"smiles": "CC(C)(C)NC(=O)NC(=O)COC(=O)Cn1cnc2ccccc2c1=O", "growth rescue (activation)": "inactive: -10.5%"}
{"smiles": "O=C(NNC(=S)NCc1ccc(Cl)cc1)c1ccc(Br)o1", "growth rescue (activation)": "inactive: 7.05%"}
{"smiles": "COc1cc2c(=O)n(CCC(=O)NCC3CCCO3)c(=O)n(CC(=O)Nc3ccc(F)cc3)c2cc1OC", "note": "(centres undefined)", "growth rescue (activation)": "inactive: 17.1%"}
{"smiles": "COc1ccccc1C(=O)Nc1ccc(S(=O)(=O)Nc2cc(C)on2)cc1", "growth rescue (activation)": "inactive: -8.63%"}
{"smiles": "C=CCn1c(SCC(=O)Nc2ccc(N3CCOCC3)cc2)nnc1-c1ccco1", "growth rescue (activation)": "inactive: 7.14%"}
{"smiles": "O=C(Nc1cc(Sc2nc3ccccc3s2)cc([N+](=O)[O-])c1)c1ccccc1", "growth rescue (activation)": "inactive: 19.3%"}
